Reference: publication PMC4336329 (PLoS ONE, 2015)
Hit rate of the full screen: of about 310,000 compounds, about 2,200 (0.71%) showed an effect of 50% or more. Effects have a minus sign here. Some of the results follow.

Biological target: human ether-à-go-go-related gene (hERG) potassium channel (human, UniProt Q12809)
Assay: primary screen, population patch clamp on CHO cells stably expressing hERG

human ether-à-go-go-related gene (hERG) potassium channel, sequence (Q12809 whole entry, looked up): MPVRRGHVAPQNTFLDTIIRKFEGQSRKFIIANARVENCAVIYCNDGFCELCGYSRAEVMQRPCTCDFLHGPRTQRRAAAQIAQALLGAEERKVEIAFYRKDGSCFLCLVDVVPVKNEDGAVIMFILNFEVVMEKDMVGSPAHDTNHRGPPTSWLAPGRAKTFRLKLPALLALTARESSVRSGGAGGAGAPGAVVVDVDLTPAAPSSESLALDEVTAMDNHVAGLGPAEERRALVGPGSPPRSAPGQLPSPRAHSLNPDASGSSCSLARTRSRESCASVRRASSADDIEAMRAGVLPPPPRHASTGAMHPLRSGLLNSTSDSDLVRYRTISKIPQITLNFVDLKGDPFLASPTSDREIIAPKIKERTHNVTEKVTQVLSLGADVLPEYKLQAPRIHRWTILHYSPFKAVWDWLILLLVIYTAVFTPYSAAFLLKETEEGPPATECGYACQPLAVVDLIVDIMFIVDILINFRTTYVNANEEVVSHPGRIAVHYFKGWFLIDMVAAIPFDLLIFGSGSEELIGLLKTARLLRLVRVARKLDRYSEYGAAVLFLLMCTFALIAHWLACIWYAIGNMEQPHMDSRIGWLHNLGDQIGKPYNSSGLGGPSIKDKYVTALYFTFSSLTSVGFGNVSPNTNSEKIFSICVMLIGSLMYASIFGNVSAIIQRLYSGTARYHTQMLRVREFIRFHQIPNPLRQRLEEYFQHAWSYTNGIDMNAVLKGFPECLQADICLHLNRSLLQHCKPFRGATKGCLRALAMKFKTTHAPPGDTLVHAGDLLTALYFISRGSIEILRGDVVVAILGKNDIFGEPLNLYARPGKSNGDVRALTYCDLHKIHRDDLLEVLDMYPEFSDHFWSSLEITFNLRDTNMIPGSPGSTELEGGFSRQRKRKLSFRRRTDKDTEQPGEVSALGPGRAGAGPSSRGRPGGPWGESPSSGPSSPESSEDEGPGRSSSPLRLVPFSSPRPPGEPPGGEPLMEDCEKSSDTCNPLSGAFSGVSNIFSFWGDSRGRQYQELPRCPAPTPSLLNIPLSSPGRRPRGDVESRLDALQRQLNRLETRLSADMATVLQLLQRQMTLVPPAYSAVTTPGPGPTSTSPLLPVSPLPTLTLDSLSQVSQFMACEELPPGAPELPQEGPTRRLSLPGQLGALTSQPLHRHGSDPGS

| Compound | hERG current change (%, negative = inhibition) at 1uM [%] |
| --- | --- |
| O=C(O)c1cccc(N/N=C/c2cccs2)c1 | 7.82 |
| CCc1ccc(CCC(=O)Nc2ccccc2C(=O)O)o1 | 4.83 |
| CCOC(=O)C1CCN(Cc2ccc(OC)c(OCc3ccccc3)c2)CC1 | -8.06 |
| Cc1cc(CN2CCCC(C(=O)Nc3ccc(-c4nc5ccccc5[nH]4)cc3)C2)n[nH]1 (centres unmarked) | 5.6 |
| COc1cccc(C(=O)Nc2cc(Cl)c(O)c(Cl)c2)c1 | 10.2 |
| O=C(Nc1ccc(Cl)cc1Cl)C1CCC(=O)N1Cc1ccccc1Cl (centres unmarked) | 0.0248 |
| COc1ccccc1NC(=O)N(CCN1CCOCC1)Cc1cc2cc(C)cc(C)c2[nH]c1=O | -1.04 |
| Cc1ccc(F)cc1NC(=O)C12CC3CC(C1)CC(n1cnc([N+](=O)[O-])n1)(C3)C2 | -32.3 |
| O=C(CSc1nc(Nc2ccccc2)nc(N2CCOCC2)n1)Nc1cccc([N+](=O)[O-])c1 | 13.6 |
| COc1ccc(NS(=O)(=O)c2cccc(Cl)c2)cc1S(=O)(=O)N1CCCCC1 | 8.98 |
| CCOC(=O)C1=C(C)Nc2ncnn2C1c1ccc2c(c1)OCO2 (centres unmarked) | 2.68 |
| O=C(O)CCCCCCC1C(=O)NC(=O)N1CCC(O)C1CCCCC1 (centres unmarked) | 10 |
| CCOC(=O)C1CCN(C(=O)Nc2ccc(Cl)cc2)CC1 | 2.69 |
| CCN(CC)CCNc1cc(C)c(C#N)c2nc3ccccc3n12 | 1.71 |
| C[n+]1ccn(CC(=O)c2ccc(Cl)cc2)c1.[Br-] | 1.55 |
| CN(CC(=O)Nc1ccc(S(=O)(=O)N2CCCC2)cc1)Cc1ccc(Cl)c(Cl)c1 | 9.27 |
| CC1Cc2cc(S(=O)(=O)CCC(=O)N3CCN(c4ccccc4)CC3)ccc2N1C(=O)C1CC1 (centres unmarked) | 6.42 |
| COC(=O)c1cc(=O)c2c(C)nc(C(Cl)(Cl)Cl)nc2[nH]1 | 4.24 |
| Cc1cc(C)c(S(=O)(=O)N2CCCOC2CNC(=O)C(=O)NCc2ccncc2)c(C)c1 (centres unmarked) | 10.7 |
| Cn1cnc2cc(NCc3ccccc3O)ccc21 | 12.7 |
| CC1=NN(CCc2ccccn2)C(=O)CC1 | 13.8 |
| COC(=O)C1=C(c2cc3ccccc3s2)C[C@@H]2CC[C@H]1N2C(=O)NCc1ccco1 | 3.26 |
| O=C(CN1CCN(c2ccc(O)cc2)CC1)Nc1ccc(-c2ccccc2)cc1 | 7.08 |

| Compound | hERG current change (%, negative = inhibition) at 1uM [%] |
| --- | --- |
| CCc1ccc(N(C(=O)CCC(=O)Nc2cc(C)on2)C(C(=O)NC(C)(C)C)c2ccc(OC)cc2)cc1 (centres unmarked) | 17.8 |
| Cc1ccccc1NC(=O)CN1C(=O)NC2(CCc3ccccc32)C1=O (centres unmarked) | 16.4 |
| Cc1cc(C)n(CC(=O)N2CCc3ccccc32)c(=O)c1C#N | 14.4 |
| C=CCNC(=O)/C(C#N)=C/c1c(N2CCN(c3cccc(Cl)c3)CC2)nc2c(C)cccn2c1=O | 11.2 |
| CC(=O)Nc1ccc(/C=C2\Sc3ccccc3C2=O)cc1 | 9.42 |
| C=CCN1C(=O)C(CC(=O)O)SC1=Nc1ccc(C(=O)O)cc1 (centres unmarked) | 10.6 |
| CC(=O)Cc1cc(=O)c2c(C)cc(O)c(C3OC(CO)C(O)C(O)C3O)c2o1 (centres unmarked) | 9.83 |
| O=C(CN1CCN(c2ccccc2O)CC1)NC(c1ccccc1)c1ccccc1 | -5.69 |
| COc1ccc(NC(=O)CNS(=O)(=O)c2ccc3nc(C)sc3c2)c(OC)c1 | 1.77 |
| Cc1ccccc1CNC(=O)Cn1ccc2cc(S(=O)(=O)N3CCCCCC3)ccc21 | 16.6 |
| N#Cc1ccc(-c2c(-c3ccccc3)ncc3cc(F)ccc23)cc1 | 13.3 |
| N#Cc1cccc2cccc(S(=O)(=O)N3CCOCC3)c12 | 17 |
| O=C(c1ccc(S(=O)(=O)N2CCCCC2)cc1)N1CCN(CCN2C(=O)c3cccc4cccc(c34)C2=O)CC1 | 12.3 |
| O=C(O)CSC(NC(=O)c1cccnc1)(C(F)(F)F)C(F)(F)F | 4.18 |
| S=C(Nc1ccc(Br)cc1)Nc1ccc2c(c1)OCCO2 | 9.23 |
| CC(C)Cc1nc2n[nH]c(N)c2c2c1CCCC2 | 9.01 |
| CCCc1cc(O)c2c(C)cc(=O)oc2c1 | 9.99 |
| O=C(NCCCn1cccn1)c1cc(COc2ccc(F)cc2Cl)on1 | -6.71 |
| CC1CCCCN1C(=O)CN1CCC(c2nc3ccc(Cl)cc3[nH]2)CC1 (centres unmarked) | 1.51 |
| Cn1c(COc2ccc3ccccc3c2)nnc1SCC(=O)O | 5.3 |
| Cc1ccc([C@@H]2C3COCC=C3C(C#N)=C(N)C2(C#N)C#N)o1 (some centres unmarked) | 1.2 |
| CCCCCC(=O)Nc1cccc(C2=NOC3(C2)C[C@H](C(N)=O)N(C(=O)c2ccccc2C(=O)c2ccccc2)C3)c1 (some centres unmarked) | 2.78 |
| CCCc1cc(-c2ccc(O)c(OCC)c2)c(C#N)c(N)n1 | 9.23 |

| Compound | hERG current change (%, negative = inhibition) at 1uM [%] |
| --- | --- |
| CCc1cccc(C)c1NC(=O)COC(=O)c1cc([N+](=O)[O-])ccc1N1CCOCC1 | 11.2 |
| CC1(C)CC(C)(c2ccc(O)cc2O)N(c2cccc(Cl)c2)C(=S)N1 (centres unmarked) | 7.77 |
| CCc1nc2ccccc2n1CC(=O)N1CCN(Cc2ccccc2)CC1 | -43.8 |
| O=C(O)C1CSC(c2ccco2)N1 (centres unmarked) | 11.2 |
| COc1ccc(OCc2nnnn2-c2ccccc2)cc1 | 2.93 |
| COc1ccc(CNC(=O)c2csc3c2CCCC3)cc1 | 4.44 |
| O=C(CSc1nnc(Cn2c(=O)sc3ccccc32)n1-c1ccccc1)N1CCOCC1 | 2.83 |
| O=C(NN=C1CCN(Cc2ccccc2)CC1)c1cc(Br)ccc1O | -0.126 |
| COc1ccccc1NC(=O)N(Cc1cccs1)Cc1cc2cc3c(cc2[nH]c1=O)OCO3 | -3.61 |
| CCOC(=O)N1CCC(NC(=O)CC2C(=O)NCCN2Cc2ccccc2F)CC1 (centres unmarked) | 8.91 |
| CCOC(=O)c1cnc(-n2[nH]c(C)cc2=O)[nH]c1=O | 11.7 |
| CN(C)C(=O)N1CCCC(C(=O)NCc2cccs2)C1 (centres unmarked) | 3.5 |
| Cc1ccc(C)c(N/N=C2\CCCNC2=O)c1 | 0.669 |
| Cc1ccc(N(CC(=O)NC(C)(C)C)C(=O)CS(=O)CC(=O)Nc2ccc(F)cc2)cc1 (centres unmarked) | 11.6 |
| Cc1c(C(=O)N2CC(C)OC(C)C2)[nH]c2ccc(Br)cc12 (centres unmarked) | 12.4 |
| O=C1CCc2cc(S(=O)(=O)Nc3ccccc3F)cc3c2N1CCC3 | 0.58 |
| CCCC(C)NS(=O)(=O)c1ccccc1 (centres unmarked) | -16 |
| Cc1ccc(-c2ccc(=O)n(Cc3c(F)cccc3Cl)n2)cc1 | 7.8 |
| COc1ccc2[nH]c3c(c2c1)CCN1C(=O)N([C@@H](C)C(=O)NC2CCCCC2C)C(=O)[C@]31C (some centres unmarked) | 7.36 |
| COc1ccc(-c2[nH]ncc2CN2CCC(N3CCSCC3)CC2)c(F)c1 | 12.1 |
| CCOC(=O)c1sc(=NC(=O)c2ccccc2Br)n(C)c1C | 1.94 |
| CC1(C)Cc2c(sc3c2C(=O)N(c2ccccc2)C2=NCCCN23)CO1 | 8.24 |
| O=C(Nc1ccc2oc(-c3cccnc3)nc2c1)c1cc2ccccc2o1 | 9.02 |

| Compound | hERG current change (%, negative = inhibition) at 1uM [%] |
| --- | --- |
| CN(C)/C=C1\C(=O)NN=C1C(F)(F)F | 2.88 |
| Cc1cccc(NC(=O)C(C)SCc2nc3sc4c(c3c(=O)[nH]2)CCCC4)n1 (centres unmarked) | 3.61 |
| COc1ccc(OCc2nnc(SCC(=O)Nc3ccccc3C#N)o2)cc1 | 3.87 |
| Cc1ccc(S(=O)(=O)n2nccc2-c2c(-c3ccc(Cl)cc3)noc2C)cc1 | 10.5 |
| CCN(CC)c1ccc(S(=O)(=O)N2CCOCC2)cc1NC(=O)CN1C(=O)NC2(CCCC2)C1=O | -7.8 |
| Cc1cccc(OCCCCCn2ccnc2)c1 | -3.37 |
| Cc1[nH]nc2c1C(c1ccccn1)N(c1ccc(Br)cc1)C2=O (centres unmarked) | -7.96 |
| CCOc1ccc(-c2nc3n(c(=O)c2C#N)CCS3)cc1 | 19.2 |
| COc1ccc(C(=O)NC(=S)NC(C)C)cc1Br | 13 |
| NC(=O)C1CCN(CC(O)CSc2ccc(F)cc2)CC1 (centres unmarked) | 16.1 |
| C#CCOCCOCCOCCNc1nc(N2CCN(C(=O)[C@H]([C@@H](C)CC)n3cc([C@@H](N)CC(C)C)nn3)CC2)nc(N2CCN(C(=O)[C@H](Cc3ccc(O)cc3)n3cc([C@@H](N)C(C)CC)nn3)CC2)n1.Cl (some centres unmarked) | 2.59 |
| O=C(OCc1ccc(Br)cc1)c1ccncc1 | 9.81 |
| O=C(O)c1cccc(NC(=S)N/N=C/c2c[nH]c3ccccc23)c1 | 13.5 |
| CS(=O)(=O)NCCCCCCNS(C)(=O)=O | 14.7 |
| COc1ccc(OCC(N)=O)cc1 | 9.82 |
| COC(=O)CCC(=O)Nc1sc(C)c(C)c1C(N)=O | 17.7 |
| CCCCNC(=O)OC(C)CNC(=O)OC (centres unmarked) | 2.34 |
| O=C(NCC1CCCO1)c1ccc(F)c2ccccc12 (centres unmarked) | 14.6 |
| CCN1C(=O)C(Cc2nc3ccccc3c(=O)n2C)c2ccccc21 (centres unmarked) | 3.46 |
| COc1ccc(OCC(=O)Nc2ccccc2N2CCCCC2)cc1 | 12.2 |
